We go through 29 molecules from US7619094B2, “Ketoamides with cyclic P4's as inhibitors of NS3 serine protease of hepatitis C virus” (Schering Corporation, priority 2004, dated 2009).

The structures appear in SMILES notation.

The first experiment has as its target Recombinant heterodimeric HCV NS3/NS4A protease (strain 1a) (Hepatitis C virus genotype 1a, UniProt P27958). The experiment is described as follows: HCV continuous assay (spectrophotometric HCV NS3/NS4A serine protease inhibition assay). The format is biochemical, HCV (strain 1a). Particulars: Table 2; ranges of Ki* values in HCV continuous assay.
For `C=CCNC(=O)C(=O)C(CCCC)NC(=O)[C@@H]1[C@@H]2[C@H](CN1C(=O)[C@@H](NC(=O)N[C@H](CN1Cc3ccccc3C1=O)C(C)(C)C)C(C)(C)C)C2(C)C` (stereo partly drawn) [Compound 5748], the Ki (commonly a measure of affinity in units of concentration, obtained from inhibition or displacement) was no more than 50 nM.
Still for that read-out and setting: next, `C#CCCC(NC(=O)[C@@H]1[C@@H]2[C@H](CN1C(=O)[C@@H](NC(=O)N[C@H](CN1Cc3ccccc3C1=O)C(C)(C)C)C(C)(C)C)C2(C)C)C(=O)C(=O)NCC=C` (stereo partly drawn) [Compound 5749]: no more than 50 nM.
The same measure, in the same setting: to `C#CCCC(NC(=O)[C@@H]1[C@@H]2[C@H](CN1C(=O)[C@@H](NC(=O)N[C@H](CN1Cc3ccccc3C1=O)C(C)(C)C)C(C)(C)C)C2(C)C)C(=O)C(=O)NCC` (stereo partly drawn) [Compound 5750] belongs no more than 50 nM.
Same read-out and setting: to `C=CCNC(=O)C(=O)C(CCC)NC(=O)[C@@H]1[C@@H]2[C@H](CN1C(=O)[C@@H](NC(=O)N[C@H](CN1Cc3ccccc3C1=O)C(C)(C)C)C1CCCCC1)C2(C)C` (stereo partly drawn) [Compound 5751] belongs no more than 50 nM.
As to `C=CCNC(=O)C(=O)C(CCCC)NC(=O)[C@@H]1[C@@H]2[C@H](CN1C(=O)[C@@H](NC(=O)N[C@H](CN1C(=O)CCCC1=O)C(C)(C)C)C(C)(C)C)C2(Cl)Cl` (stereo partly drawn) [Compound 5752], the Ki was no more than 50 nM.
Still for that read-out and setting: next, `C=CCNC(=O)C(=O)C(CCCC)NC(=O)[C@@H]1[C@@H]2[C@H](CN1C(=O)[C@@H](NC(=O)N[C@H](CN1C(=O)CC(C)(C)CC1=O)C(C)(C)C)C(C)(C)C)C2(C)C` (stereo partly drawn) [Compound 5753]: no more than 50 nM.
Consider `C=CCNC(=O)C(=O)C(CC1CC1)NC(=O)[C@@H]1[C@@H]2[C@H](CN1C(=O)[C@@H](NC(=O)N[C@H](CN1C(=O)CC(C)(C)CC1=O)C(C)(C)C)C(C)(C)C)C2(C)C` (stereo partly drawn) [Compound 5754], for which the Ki is no more than 50 nM.
Same read-out and setting: next, `C=CCNC(=O)C(=O)C(CC1CCC1)NC(=O)[C@@H]1[C@@H]2[C@H](CN1C(=O)[C@@H](NC(=O)N[C@H](CN1C(=O)CC(C)(C)CC1=O)C(C)(C)C)C(C)(C)C)C2(C)C` (stereo partly drawn) [Compound 5755]: no more than 50 nM.
On the same count and under the same terms, next, `C=CCNC(=O)C(=O)C(CCCC)NC(=O)[C@@H]1[C@@H]2[C@H](CN1C(=O)[C@@H](NC(=O)N[C@H](CN1C(=O)CC(C)(C)CC1=O)C(C)(C)C)C(C)(C)C)C2(Cl)Cl` (stereo partly drawn) [Compound 5756]: no more than 50 nM; `C=CCNC(=O)C(=O)C(CCC)NC(=O)[C@@H]1[C@@H]2[C@H](CN1C(=O)[C@@H](NC(=O)N[C@H](CN1C(=O)CC(C)(C)CC1=O)C(C)(C)C)C(C)(C)C)C2(C)C` (stereo partly drawn) [Compound 5757]: no more than 50 nM; `CCCCC(NC(=O)[C@@H]1[C@@H]2[C@H](CN1C(=O)[C@@H](NC(=O)N[C@H](CN1C(=O)CC(C)(C)CC1=O)C(C)(C)C)C(C)(C)C)C2(C)C)C(=O)C(=O)NCC` (stereo partly drawn) [Compound 5758]: no more than 50 nM.
Still for that read-out and setting: to `C#CCCC(NC(=O)[C@@H]1[C@@H]2[C@H](CN1C(=O)[C@@H](NC(=O)N[C@H](CN1C(=O)CC(C)(C)CC1=O)C(C)(C)C)C(C)(C)C)C2(C)C)C(=O)C(=O)NCC=C` (stereo partly drawn) [Compound 5759] belongs no more than 50 nM; to `C=CCNC(=O)C(=O)C(CCCC)NC(=O)[C@@H]1[C@@H]2[C@H](CN1C(=O)[C@@H](NC(=O)N[C@H](CN1C(=O)c3ccccc3C1=O)C(C)(C)C)C(C)(C)C)C2(Cl)Cl` (stereo partly drawn) [Compound 5760], no more than 50 nM; to `CC1(C)CC(=O)N(C[C@@H](NC(=O)N[C@H](C(=O)N2C[C@H]3[C@@H]([C@H]2C(=O)NC(CC2CC2)C(=O)C(N)=O)C3(C)C)C(C)(C)C)C(C)(C)C)C(=O)C1` (stereo partly drawn) [Compound 5761], no more than 50 nM.
Turning to `CC1(C)CC(=O)N(C[C@@H](NC(=O)N[C@H](C(=O)N2C[C@H]3[C@@H]([C@H]2C(=O)NC(CC2CCC2)C(=O)C(N)=O)C3(C)C)C(C)(C)C)C(C)(C)C)C(=O)C1` (stereo partly drawn) [Compound 5762], the inhibition constant Ki is no more than 50 nM.
Still for that read-out and setting: next, `C=CCNC(=O)C(=O)C(CCC(F)(F)F)NC(=O)[C@@H]1[C@@H]2[C@H](CN1C(=O)[C@@H](NC(=O)N[C@H](CN1Cc3ccccc3C1=O)C(C)(C)C)C1CCCCC1)C2(C)C` (stereo partly drawn) [Compound 5763]: no more than 50 nM; `C#CCCC(NC(=O)[C@@H]1[C@@H]2[C@H](CN1C(=O)[C@@H](NC(=O)N[C@H](CN1Cc3ccccc3C1=O)C(C)(C)C)C1CCCCC1)C2(C)C)C(=O)C(=O)NCC=C` (stereo partly drawn) [Compound 5764]: no more than 50 nM.
For `C=CCNC(=O)C(=O)C(CCCC)NC(=O)[C@@H]1[C@@H]2[C@H](CN1C(=O)[C@@H](NC(=O)N[C@H](CN1Cc3ccccc3C1=O)C(C)(C)C)C1CCCCC1)C2(C)C` (stereo partly drawn) [Compound 5765], the Ki is no more than 50 nM.
On the same count and under the same terms, next, `CCCC(NC(=O)[C@@H]1[C@@H]2[C@H](CN1C(=O)[C@@H](NC(=O)N[C@H](CN1Cc3ccccc3C1=O)C(C)(C)C)C1CCCCC1)C2(C)C)C(=O)C(=O)NC1CC1` (stereo partly drawn) [Compound 5766]: no more than 50 nM.
Still for that read-out and setting: to `CCCCC(NC(=O)[C@@H]1[C@@H]2[C@H](CN1C(=O)[C@@H](NC(=O)N[C@H](CN1Cc3ccccc3C1=O)C(C)(C)C)C1CCCCC1)C2(C)C)C(=O)C(=O)NCC` (stereo partly drawn) [Compound 5767] belongs no more than 50 nM.
Same read-out and setting: to `C=CCNC(=O)C(=O)C(CC1CC1)NC(=O)[C@@H]1[C@@H]2[C@H](CN1C(=O)[C@@H](NC(=O)N[C@H](CN1Cc3ccccc3C1=O)C(C)(C)C)C1CCCCC1)C2(C)C` (stereo partly drawn) [Compound 5768] belongs no more than 50 nM.
On to `C=CCNC(=O)C(=O)C(CC1CCC1)NC(=O)[C@@H]1[C@@H]2[C@H](CN1C(=O)[C@@H](NC(=O)N[C@H](CN1Cc3ccccc3C1=O)C(C)(C)C)C1CCCCC1)C2(C)C` (stereo partly drawn) [Compound 5769], for which the inhibitory constant (Ki) is no more than 50 nM.
Same read-out and setting: next, `C=CCNC(=O)C(=O)C(CCC)NC(=O)[C@@H]1[C@@H]2[C@H](CN1C(=O)[C@@H](NC(=O)N[C@H](CN1C(=O)c3cc[n+]([O-])cc3C1=O)C(C)(C)C)C(C)(C)C)C2(C)C` (stereo partly drawn) [Compound 5770]: no more than 50 nM.
Same read-out and setting: next, `C=CCNC(=O)C(=O)C(CCCC)NC(=O)[C@@H]1[C@@H]2[C@H](CN1C(=O)[C@@H](NC(=O)N[C@H](CN1C(=O)c3cc[n+]([O-])cc3C1=O)C(C)(C)C)C(C)(C)C)C2(C)C` (stereo partly drawn) [Compound 5771]: no more than 50 nM.
Same read-out and setting: to `C=CCNC(=O)C(=O)C(CC1CC1)NC(=O)[C@@H]1[C@@H]2[C@H](CN1C(=O)[C@@H](NC(=O)N[C@H](CN1C(=O)c3cc[n+]([O-])cc3C1=O)C(C)(C)C)C(C)(C)C)C2(C)C` (stereo partly drawn) [Compound 5772] belongs no more than 50 nM; to `CC(C)(C)[C@H](NC(=O)N[C@H](CN1C(=O)c2cc[n+]([O-])cc2C1=O)C(C)(C)C)C(=O)N1C[C@H]2[C@@H]([C@H]1C(=O)NC(CC1CC1)C(=O)C(N)=O)C2(C)C` (stereo partly drawn) [Compound 5773], no more than 50 nM.
Consider `CC(C)(C)[C@H](NC(=O)N[C@H](CN1C(=O)c2cc[n+]([O-])cc2C1=O)C(C)(C)C)C(=O)N1C[C@H]2[C@@H]([C@H]1C(=O)NC(CC1CCC1)C(=O)C(N)=O)C2(C)C` (stereo partly drawn) [Compound 5774], for which the Ki is no more than 50 nM.
On the same count and under the same terms, to `C=CCNC(=O)C(=O)C(CC1CC1)NC(=O)[C@@H]1[C@@H]2[C@H](CN1C(=O)[C@@H](NC(=O)N[C@H](CN1C(=O)CC(C)(C)CC1=O)C(C)(C)C)C1CCCCC1)C2(C)C` (stereo partly drawn) [Compound 5775] belongs no more than 50 nM; to `C=CCNC(=O)C(=O)C(CCC)NC(=O)[C@@H]1[C@@H]2[C@H](CN1C(=O)[C@@H](NC(=O)N[C@H](CN1C(=O)CC(C)(C)CC1=O)C(C)(C)C)C1CCCCC1)C2(C)C` (stereo partly drawn) [Compound 5776], no more than 50 nM.

Staying with this experiment, now noted: Table 4; Ki* values.
As for `C=CCNC(=O)C(=O)C(CCCC)NC(=O)[C@@H]1[C@@H]2[C@H](CN1C(=O)[C@@H](NC(=O)N[C@H](CN1C(=O)CC(C)(C)CC1=O)C(C)(C)C)C(C)(C)C)C2(C)C` (stereo partly drawn) [Compound 5753], the inhibitory constant (Ki) worked out at 4 nM.
Still for that read-out and setting: next, `C=CCNC(=O)C(=O)C(CC1CC1)NC(=O)[C@@H]1[C@@H]2[C@H](CN1C(=O)[C@@H](NC(=O)N[C@H](CN1C(=O)CC(C)(C)CC1=O)C(C)(C)C)C(C)(C)C)C2(C)C` (stereo partly drawn) [Compound 5754]: 4 nM; `C=CCNC(=O)C(=O)C(CC1CCC1)NC(=O)[C@@H]1[C@@H]2[C@H](CN1C(=O)[C@@H](NC(=O)N[C@H](CN1C(=O)CC(C)(C)CC1=O)C(C)(C)C)C(C)(C)C)C2(C)C` (stereo partly drawn) [Compound 5755]: 7 nM; `C=CCNC(=O)C(=O)C(CC1CC1)NC(=O)[C@@H]1[C@@H]2[C@H](CN1C(=O)[C@@H](NC(=O)N[C@H](CN1C(=O)CC(C)(C)CC1=O)C(C)(C)C)C1CCCCC1)C2(C)C` (stereo partly drawn) [Compound 5775]: 5 nM.
